From patent US20240294594A1 (CYTUNE PHARMA, published 2024)
Substitutions are numbered along the chain they refer to. In names and notes the source's numbering stands. Blank lines part the entries; values can stand above or below the binder they belong to.

Experiments:
[1] = target: T1, PD-1 (on PD-1 Effector Cells of the Promega PD-1/PD-L1 Blockade Bioassay) (UniProt Q15116 25-288, limits assumed); experiment: cell-based or functional assay
[2] = target: T1, PD-1 (on PD-1 Effector Cells of the …); experiment: cell-based or functional assay; remark: listed apart in the source
IL-2/IL-15Rβγ (on cells) [3] = target: T2, IL-2/IL-15Rβγ (on cells) (UniProt P14784 27-551; P31785 23-369, limits assumed); experiment: cell-based or functional assay
T2 sequence (looked up) 1: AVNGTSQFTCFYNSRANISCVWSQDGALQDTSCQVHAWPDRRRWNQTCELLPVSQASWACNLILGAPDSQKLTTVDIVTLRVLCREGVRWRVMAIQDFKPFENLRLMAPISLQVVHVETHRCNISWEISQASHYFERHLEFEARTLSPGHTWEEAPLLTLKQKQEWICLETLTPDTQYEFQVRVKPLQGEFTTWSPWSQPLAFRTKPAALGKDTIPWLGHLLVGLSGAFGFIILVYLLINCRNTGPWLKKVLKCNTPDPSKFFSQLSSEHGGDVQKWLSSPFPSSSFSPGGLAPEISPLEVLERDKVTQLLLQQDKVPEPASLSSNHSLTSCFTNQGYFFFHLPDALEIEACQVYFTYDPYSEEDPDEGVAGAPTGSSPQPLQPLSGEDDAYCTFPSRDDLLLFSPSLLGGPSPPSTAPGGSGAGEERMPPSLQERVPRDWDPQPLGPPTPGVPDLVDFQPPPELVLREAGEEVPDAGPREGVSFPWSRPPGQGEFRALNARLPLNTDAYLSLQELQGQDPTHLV
T2 sequence (looked up) 2: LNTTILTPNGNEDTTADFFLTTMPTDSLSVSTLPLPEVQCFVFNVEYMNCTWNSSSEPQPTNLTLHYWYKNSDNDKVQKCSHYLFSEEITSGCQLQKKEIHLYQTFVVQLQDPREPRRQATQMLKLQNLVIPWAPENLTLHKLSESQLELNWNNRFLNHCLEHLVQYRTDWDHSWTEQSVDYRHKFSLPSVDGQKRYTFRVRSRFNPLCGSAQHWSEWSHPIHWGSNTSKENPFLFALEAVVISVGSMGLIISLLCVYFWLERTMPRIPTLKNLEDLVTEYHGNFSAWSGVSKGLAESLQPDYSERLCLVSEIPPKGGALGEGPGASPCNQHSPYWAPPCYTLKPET

[4] = target: T3, PD-1 (target implied for the KD values of Table 32) (UniProt Q15116 in part, limits assumed); experiment: method not described; 4° C. binding, 4 h
[5] = target: T3, PD-1 (target implied for the KD values …); experiment: method not described; 37° C. binding, 1 h
[6] = target: T3, PD-1 (target implied for the KD values …); experiment: method not described; 37° C. binding, 4 h
IL-2/IL-15Rβγ (on cells) [7] = target: T2, IL-2/IL-15Rβγ (on cells); experiment: cell-based or functional assay; remark: listed apart in the source
FcγRIIIa V158 [8] = target: T4, FcγRIIIa V158 (human, UniProt P08637 in part, limits assumed); experiment: SPR (Biacore 8K), ratio of 1/Kd values
T4 construct: also called hFcγRIIIaV158; CD16a V158
Method: (§1) SPR experiments were performed on a Biacore 8K (Cytiva, Chicago, IL, USA), using CM5 sensor chips (Cytiva) with an immobilization using THE His tag antibodies (Genscript). FcγRIIIa V158, FcγRIIIa F158 or FcγRIIb protein were used for capture with a contact time of 30 sec at a flow rate of […] in a 1×HBS-EP+ running buffer. Association/dissociation rates were measured for each tested immunocytokine at a flow rate of 30 μl/min with concentration serial dilution in a suitable range with an association time/dissociation time of 300 s/300 s except for constructs with DLE and DE with and without afucosylation, where association/dissociation time of 120 s/1200 s was applied.

FcγRIIIa F158 [9] = target: T5, FcγRIIIa F158 (human, UniProt P08637 in part, limits assumed); experiment: SPR (Biacore 8K), ratio of 1/Kd values
T5 construct: also called hFcγRIIIaF158; CD16a F158
Method: as §1

FcγRIIIa V158 [10] = target: T4, FcγRIIIa V158; experiment: SPR (Biacore 8K), receptor captured via anti-His antibody
T4 sequence (P08637 17-208 F176V limits assumed): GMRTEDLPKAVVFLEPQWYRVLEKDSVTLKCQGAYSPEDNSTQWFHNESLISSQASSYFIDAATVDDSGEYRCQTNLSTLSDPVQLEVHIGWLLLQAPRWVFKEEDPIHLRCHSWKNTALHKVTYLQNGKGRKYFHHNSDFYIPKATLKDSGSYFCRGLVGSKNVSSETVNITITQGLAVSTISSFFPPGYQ
Method: as §1

FcγRIIIa F158 [11] = target: T5, FcγRIIIa F158; experiment: as above
T5 sequence (P08637 17-208 limits assumed): as the sequence (P08637 17-208 F176V limits assumed) above, with V160F counted along it
Method: as §1

FcγRIIb = target: T6, FcγRIIb (UniProt P31994 46-217, limits assumed); experiment: as above
T6 construct: also called FcgRIIb
T6 sequence (looked up): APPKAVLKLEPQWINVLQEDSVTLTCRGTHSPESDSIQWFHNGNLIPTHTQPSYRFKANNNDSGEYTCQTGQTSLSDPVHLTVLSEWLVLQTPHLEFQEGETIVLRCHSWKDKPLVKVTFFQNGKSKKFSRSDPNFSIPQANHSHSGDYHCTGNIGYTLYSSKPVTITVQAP
Method: as §1

EC50 [pM], PD-1/PD-L1 Blockade Bioassay (Promega) [1]: 1380 pM
B1: PEM-RLI NA x1 (other)
heavy 1: QVQLVQSGVEVKKPGASVKVSCKASGYTFTNYYMYWVRQAPGQGLEWMGGINPSNGGTNFNEKFKNRVTLTTDSSTTTAYMELKSLQFDDTAVYYCARRDYRFDMGFDYWGQGTTVTVSSASTKGPSVFPLAPCSRSTSESTAALGCLVKDYFPEPVTVSWNSGALTSGVHTFPAVLQSSGLYSLSSVVTVPSSSLGTKTYTCNVDHKPSNTKVDKRV[not shown - human IgG4 Fc with S228P T366W (EU numbers)]ITCPPPMSVEHADIWVKSYSLYSRERYICNSGFKRKAGTSSLTECVLNKATNVAHWTTPSLKCIRDPALVHQRPAPPSGGSGGGGSGGGSGGGGSGGNWVNVISDLKKIEDLIQSMHIDATLYTESDVHPSCKVTAMKCFLLELQVISLESGDASIHDTVEALIILANNSLSSNAQVTESGCKECEELEEKNIKEFLQSFVHIVQMFINTS
heavy 2: QVQLVQSGVEVKKPGASVKVSCKASGYTFTNYYMYWVRQAPGQGLEWMGGINPSNGGTNFNEKFKNRVTLTTDSSTTTAYMELKSLQFDDTAVYYCARRDYRFDMGFDYWGQGTTVTVSSASTKGPSVFPLAPCSRSTSESTAALGCLVKDYFPEPVTVSWNSGALTSGVHTFPAVLQSSGLYSLSSVVTVPSSSLGTKTYTCNVDHKPSNTKVDKRVESKYGPPCPPCPAPEFLGGPSVFLFPPKPKDTLMISRTPEVTCVVVDVSQEDPEVQFNWYVDGVEVHNAKTKPREEQFNSTYRVVSVLTVLHQDWLNGKEYKCKVSNKGLPSSIEKTISKAKGQPREPQVYTLPPSQEEMTKNQVSLSCAVKGFYPSDIAVEWESNGQPENNYKTTPPVLDSDGSFFLVSRLTVDKSRWQEGNVFSCSVMHEALHNHYTQKSLSLSLG
light: EIVLTQSPATLSLSPGERATLSCRASKGVSTSGYSYLHWYQQKPGQAPRLLIYLASYLESGVPARFSGSGSGTDFTLTISSLEPEDFAVYYCQHSRDLPLTFGGGTKVEIKRTVAAPSVFIFPPSDEQLKSGTASVVCLLNNFYPREAKVQWKVDNALQSGNSQESVTEQDSKDSTYSLSSTLTLSKADYEKHKVYACEVTHQGLSSPVTKSFNRGEC

EC50 [pM], Promega blocking assay [2]: 2770 pM
Relative potency vs Keytruda, Promega blocking assay [2]: 63.6%
EC50 (read off the curve), % Ki-67+ CD8+ T cells [CD8+ T cells] (IL-2/IL-15Rβγ (on cells) [3]): ~20 nM
EC50 (read off the curve), % Ki-67+ NK cells [NK cells] (IL-2/IL-15Rβγ (on cells) [3]): ~3 nM
Kd [4]: 0.26 nM
Kd [5]: 0.23 nM
Kd [6]: 0.21 nM
B2: SOT201 (other)
heavy 1: QVQLVQSGVEVKKPGASVKVSCKASGYTFTNYYMYWVRQAPGQGLEWMGGINPSNGGTNFNEKFKNRVTLTTDSSTTTAYMELKSLQFDDTAVYYCARRDYRFDMGFDYWGQGTTVTVSSASTKGPSVFPLAPCSRSTSESTAALGCLVKDYFPEPVTVSWNSGALTSGVHTFPAVLQSSGLYSLSSVVTVPSSSLGTKTYTCNVDHKPSNTKVDKRV[not shown - human IgG4 Fc with S228P L235E T366W (EU numbers)]ITCPPPMSVEHADIWVKSYSLYSRERYICNSGFKRKAGTSSLTECVLNKATNVAHWTTPSLKCIRDPALVHQRPAPPSGGSGGGGSGGGSGGGGSGGNWVNVISDLKKIEDLIQSMHIDATLYTESDVHPSCKVTAMKCFLLELQVISLESGDASIHDTVEALIILANNSLSSNAQVTESGCKECEELEEKNIKEFLQSFVHIVQMFINTS
heavy 2: B1 heavy 2 with L235E
light: B1 light
notes: Heterodimeric immunocytokine derived from IgG4 pembrolizumab (KiH, L235E, dK) with RLI-15AQA on the knob heavy chain; also called PEM L-RLI NA x1; PEM-RLI-15AQA

EC50 kit225 cells pM (IL-2/IL-15Rβγ (on cells) [7]): 21600 pM
B3: PEM-RLI NQD x1 (other)
heavy 1: QVQLVQSGVEVKKPGASVKVSCKASGYTFTNYYMYWVRQAPGQGLEWMGGINPSNGGTNFNEKFKNRVTLTTDSSTTTAYMELKSLQFDDTAVYYCARRDYRFDMGFDYWGQGTTVTVSSASTKGPSVFPLAPCSRSTSESTAALGCLVKDYFPEPVTVSWNSGALTSGVHTFPAVLQSSGLYSLSSVVTVPSSSLGTKTYTCNVDHKPSNTKVDKRV[not shown - human IgG4 Fc with S228P T366W (EU numbers)]ITCPPPMSVEHADIWVKSYSLYSRERYICNSGFKRKAGTSSLTECVLNKATNVAHWTTPSLKCIRDPALVHQRPAPPSGGSGGGGSGGGSGGGGSGGNWVNVISDLKKIEDLIQSMHIDATLYTESNVHPSCKVTAMKCFLLELQVISLESGDASIHDTVQDLIILANNSLSSNAQVTESGCKECEELEEKNIKEFLQSFVHIVQMFINTS
heavy 2: B1 heavy 2
light: B1 light

A/I (V158), affinity towards FcγRIIIa over affinity towards FcγRIIb (FcγRIIIa V158 [8]): 151 ratio
A/I (F158), affinity towards FcγRIIIa over affinity towards FcγRIIb (FcγRIIIa F158 [9]): 54.7 ratio
Kd (FcγRIIIa V158 [10]): 24.4 nM
Kd (FcγRIIIa F158 [11]): 67.3 nM
Kd (FcγRIIb): 3680 nM
B4: hCl1a IE-RLI DANA (other)
heavy 1: QVQLVQSGAEVKKPGASVKVSCKASGYTFTDYAMHWVRQAPGQRLEWMGWINTYTGKPTYAQKFQGRVTITRDTSASTAYMELSSLRSEDTAVYYCARAVFYGYTMDAWGQGTLVTVSSASTKGPSVFPLAPSSKSTSGGTAALGCLVKDYFPEPVTVSWNSGALTSGVHTFPAVLQSSGLYSLSSVVTVPSSSLGTQTYICNVNHKPSNTKVDKKVEPKSCDKTHTCPPCPAPELLGGPSVFLFPPKPKDTLMISRTPEVTCVVIDVSHEDPEVKFNWYVDGVEVHNAKTKPREEQYNSTYRVVSVLTVLHQDWLNGKEYKCKVSNKALPAPEEKTISKAKGQPREPQVYTLPPSRDELTKNQVSLWCLVKGFYPSDIAVEWESNGQPENNYKTTPPVLDSDGSFFLYSKLTVDKSRWQQGNVFSCSVMHEALHNHYTQKSLSLSPGITCPPPMSVEHADIWVKSYSLYSRERYICNSGFKRKAGTSSLTECVLNKATNVAHWTTPSLKCIRDPALVHQRPAPPSGGSGGGGSGGGSGGGGSGGNWVNVISDLKKIEDLIQSMHIDATLYTESDVHPSCKVTAMKCFLLELQVISLESGDASIHATVEALIILANNSLSSNAQVTESGCKECEELEEKNIKEFLQSFVHIVQMFINTS
heavy 2: QVQLVQSGAEVKKPGASVKVSCKASGYTFTDYAMHWVRQAPGQRLEWMGWINTYTGKPTYAQKFQGRVTITRDTSASTAYMELSSLRSEDTAVYYCARAVFYGYTMDAWGQGTLVTVSSASTKGPSVFPLAPSSKSTSGGTAALGCLVKDYFPEPVTVSWNSGALTSGVHTFPAVLQSSGLYSLSSVVTVPSSSLGTQTYICNVNHKPSNTKVDKKV[not shown - human IgG1 Fc with V264I I332E T366S L368A Y407V (EU numbers)]
light: DIQMTQSPSSLSASVGDRVTITCRASEDIYSNLAWYQQKPGKAPKLLIFSVKRLQDGVPSRFSGSGSGTDFTLTISSLQPEDFATYYCLQGSNFPLTFGQGTKVEIKRTVAAPSVFIFPPSDEQLKSGTASVVCLLNNFYPREAKVQWKVDNALQSGNSQESVTEQDSKDSTYSLSSTLTLSKADYEKHKVYACEVTHQGLSSPVTKSFNRGEC
notes: Immunocytokine

A/I (V158), affinity towards FcγRIIIa over affinity towards FcγRIIb (FcγRIIIa V158 [8]): 60.9 ratio
A/I (F158), affinity towards FcγRIIIa over affinity towards FcγRIIb (FcγRIIIa F158 [9]): 20.9 ratio
Kd (FcγRIIIa V158 [10]): 47.6 nM
Kd (FcγRIIIa F158 [11]): 139 nM
Kd (FcγRIIb): 2900 nM
B5: hCl1a TL-RLI DANA (other)
heavy 1: B4 heavy 1 with I266V, E334I, K394T, P398L
heavy 2: QVQLVQSGAEVKKPGASVKVSCKASGYTFTDYAMHWVRQAPGQRLEWMGWINTYTGKPTYAQKFQGRVTITRDTSASTAYMELSSLRSEDTAVYYCARAVFYGYTMDAWGQGTLVTVSSASTKGPSVFPLAPSSKSTSGGTAALGCLVKDYFPEPVTVSWNSGALTSGVHTFPAVLQSSGLYSLSSVVTVPSSSLGTQTYICNVNHKPSNTKVDKKV[not shown - human IgG1 Fc with T366S L368A K392T P396L Y407V (EU numbers)]
light: B4 light
notes: Immunocytokine
